From US7517874B2 (priority 2007, dated 2009)
pEC50: −log10 of the molar value. Read-outs that look alike come from different tables or passages of the source.

Biological target: human CB2 receptor (hCB2) (Homo sapiens, UniProt P34972)
Assay: cell-based
Type: cell-based
Conditions: for +/− HCB2: agonist or inverse agonist at hCB2; for EC50: groups >100 nM-10 μM and >10 μM, cAMP, CHO-K1 hCB2, read-out: EC50 HCB2

human CB2 receptor (hCB2), sequence (P34972 whole entry): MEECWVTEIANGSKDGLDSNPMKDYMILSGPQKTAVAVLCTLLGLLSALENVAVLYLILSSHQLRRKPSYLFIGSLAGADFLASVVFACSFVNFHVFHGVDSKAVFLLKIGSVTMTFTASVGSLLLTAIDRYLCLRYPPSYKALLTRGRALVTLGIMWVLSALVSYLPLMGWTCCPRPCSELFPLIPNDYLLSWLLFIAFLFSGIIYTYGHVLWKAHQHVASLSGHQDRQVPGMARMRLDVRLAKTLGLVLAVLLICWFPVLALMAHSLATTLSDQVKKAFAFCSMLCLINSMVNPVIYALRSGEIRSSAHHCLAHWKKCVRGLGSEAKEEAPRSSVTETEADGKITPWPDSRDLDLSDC

Row | SMILES | +/− HCB2 | also measured
1 | C=C(c1nc(C(=O)N[C@H](C(=O)NC)C(C)(C)C)c2n1CCCN(C)C2)C(F)(F)F [Compound 453, (S)-N-(3,3-dimethyl-1-(methylamino)-1-oxobutan-2-yl)-8-methyl-3-(3,3,3-trifluoroprop-1-en-2-yl)-6,7,8,9-tetrahydro-5H-imidazo[1,5-a][1,4]diazepine-1-carboxamide] |  | pEC50: < 5.00
2 | CNC(=O)[C@@H](NC(=O)c1nc(C#Cc2cccnc2)n2c1CN(C)CC2)C(C)(C)C [Compound 205, (S)-N-(3,3-dimethyl-1-(methylamino)-1-oxobutan-2-yl)-7-methyl-3-(pyridin-3-ylethynyl)-5,6,7,8-tetrahydroimidazo[1,5-a]pyrazine-1-carboxamide] |  | pEC50: < 5.00
3 | CC(C)CN1CCn2c(-c3ccccc3)nc(C(=O)Nc3ccccc3)c2C1 [Compound 150, 7-isobutyl-N,3-diphenyl-5,6,7,8-tetrahydroimidazo[1,5-a]pyrazine-1-carboxamide] |  | pEC50: < 5.00
4 | CN1CCCn2c(-c3ccccc3)nc(C(=O)N[C@H](C(N)=O)C(C)(C)C)c2C1 [Compound 582] | + | 
5 | CN1CCCn2c(-c3ccc(Cl)c(F)c3)nc(C(=O)N[C@H](C(N)=O)C(C)(C)C)c2C1 [Compound 577, (S)-N-(1-amino-3,3-dimethyl-1-oxobutan-2-yl)-3-(4-chloro-3-fluorophenyl)-8-methyl-6,7,8,9-tetrahydro-5H-imidazo[1,5-a][1,4]diazepine-1-carboxamide] | + | 
6 | CNC(=O)[C@@H](NC(=O)c1nc(-c2ccccc2)n2c1CN(C(=O)C1CC1)CC2)C(C)(C)C [Compound 126, (S)-7-(cyclopropanecarbonyl)-N-(3,3-dimethyl-1-(methylamino)-1-oxobutan-2-yl)-3-phenyl-5,6,7,8-tetrahydroimidazo[1,5-a]pyrazine-1-carboxamide] |  | pEC50: < 5.00
7 | CNC(=O)[C@@H](NC(=O)c1nc(-c2cc(F)c(OC)cc2F)n2c1CN(C)CCC2)C(C)(C)C [Compound 424, (S)-3-(2,5-difluoro-4-methoxyphenyl)-N-(3,3-dimethyl-1-(methylamino)-1-oxobutan-2-yl)-8-methyl-6,7,8,9-tetrahydro-5H-imidazo[1,5-a][1,4]diazepine-1-carboxamide] | + | 
8 | CNC(=O)[C@@H](NC(=O)c1nc(-c2ccc(F)c(C(N)=O)c2)n2c1CN(C)CCC2)C(C)(C)C [Compound 429, (S)-3-(3-carbamoyl-4-fluorophenyl)-N-(3,3-dimethyl-1-(methylamino)-1-oxobutan-2-yl)-8-methyl-6,7,8,9-tetrahydro-5H-imidazo[1,5-a][1,4]diazepine-1-carboxamide] | + | 
9 | CNC(=O)[C@@H](NC(=O)c1nc(-c2ccccc2)n2c1CN(S(=O)(=O)c1ccccc1)CC2)C(C)(C)C [Compound 96, (S)-N-(3,3-dimethyl-1-(methylamino)-1-oxobutan-2-yl)-3-phenyl-7-(phenylsulfonyl)-5,6,7,8-tetrahydroimidazo[1,5-a]pyrazine-1-carboxamide] | − | 
10 | CNC(=O)[C@@H](NC(=O)c1nc(/C=C/COC)n2c1CN(C)CC2)C(C)(C)C [Compound 264, (S,E)-N-(3,3-dimethyl-1-(methylamino)-1-oxobutan-2-yl)-3-(3-methoxyprop-1-enyl)-7-methyl-5,6,7,8-tetrahydroimidazo[1,5-a]pyrazine-1-carboxamide] | + | 
11 | C=C(c1ccccc1)c1nc(C(=O)N[C@H](C(=O)NC)C(C)(C)C)c2n1CCCN(C)C2 [Compound 455, (S)-N-(3,3-dimethyl-1-(methylamino)-1-oxobutan-2-yl)-8-methyl-3-(1-phenylvinyl)-6,7,8,9-tetrahydro-5H-imidazo[1,5-a][1,4]diazepine-1-carboxamide] | + | 
12 | CNC(=O)[C@@H](NC(=O)c1nc(-c2ccccc2)n2c1CN(C(=O)NC(C)(C)C)CC2)C(C)(C)C [Compound 192, (S)-N7-tert-butyl-N1-(3,3-dimethyl-1-(methylamino)-1-oxobutan-2-yl)-3-phenyl-5,6-dihydroimidazo[1,5-a]pyrazine-1,7(8H)-dicarboxamide] | + | 
13 | CCN1CCCn2c(-c3ccccc3)nc(C(=O)N[C@H](C(=O)NC)C(C)(C)C)c2C1 [Compound 318, (S)-N-(3,3-dimethyl-1-(methylamino)-1-oxobutan-2-yl)-8-ethyl-3-phenyl-6,7,8,9-tetrahydro-5H-imidazo[1,5-a][1,4]diazepine-1-carboxamide] | + | 
14 | CN1CCn2c(-c3ccccc3)nc(C(=O)N[C@H](CO)C(C)(C)C)c2C1 [Compound 59, (S)-N-(1-hydroxy-3,3-dimethylbutan-2-yl)-7-methyl-3-phenyl-5,6,7,8-tetrahydroimidazo[1,5-a]pyrazine-1-carboxamide] | + | 
15 | CNC(=O)[C@@H](NC(=O)c1nc(-c2ccc(F)c(C(=O)O)c2)n2c1CN(C)CCC2)C(C)(C)C [Compound 411] |  | pEC50: < 5.00
16 | CCS(=O)(=O)N1CCn2c(-c3ccccc3)nc(C(=O)NC3C4(C)CCC(C4)C3(C)C)c2C1 (centres unmarked) [Compound 112, 7-(ethylsulfonyl)-3-phenyl-N-(1,3,3-trimethylbicyclo[2.2.1]heptan-2-yl)-5,6,7,8-tetrahydroimidazo[1,5-a]pyrazine-1-carboxamide] | + | 
17 | CNC(=O)[C@@H](NC(=O)c1nc(-c2cc(C(F)(F)F)ccc2F)n2c1CN(C)CC2)C(C)(C)C [Compound 245, (S)-N-(3,3-dimethyl-1-(methylamino)-1-oxobutan-2-yl)-3-(2-fluoro-5-(trifluoromethyl)phenyl)-7-methyl-5,6,7,8-tetrahydroimidazo[1,5-a]pyrazine-1-carboxamide] | + | 
18 | CNC(=O)[C@@H](NC(=O)c1nc(-c2ccccc2)n2c1CN(C(C)=O)CCC2)C(C)(C)C [Compound 463, (S)-8-acetyl-N-(3,3-dimethyl-1-(methylamino)-1-oxobutan-2-yl)-3-phenyl-6,7,8,9-tetrahydro-5H-imidazo[1,5-a][1,4]diazepine-1-carboxamide] |  | pEC50: < 5.00
19 | O=C(NN1CCCCC1)c1nc(-c2ccccc2)n2c1CN(CCO)CC2 [Compound 156, 7-(2-hydroxyethyl)-3-phenyl-N-(piperidin-1-yl)-5,6,7,8-tetrahydroimidazo[1,5-a]pyrazine-1-carboxamide] |  | EC50: > 10000 nM
20 | CC(C)CN1CCn2c(-c3ccccc3)nc(C(=O)N3CCOCC3)c2C1 [Compound 70, (7-isobutyl-3-phenyl-5,6,7,8-tetrahydroimidazo[1,5-a]pyrazin-1-yl)(morpholino)methanone] |  | EC50: > 10000 nM
21 | CNC(=O)c1ccc(NC(=O)c2nc(-c3ccc(Cl)cc3F)n3c2CN(C)CC3)cc1 [Compound 218] |  | EC50: > 10000 nM
22 | CC(C)(C)c1noc([C@@H](NC(=O)c2nc(-c3ccccc3)n3c2CN(C2CC2)CC3)C(C)(C)C)n1 [Compound 284, (S)-N-(1-(3-tert-butyl-1,2,4-oxadiazol-5-yl)-2,2-dimethylpropyl)-7-cyclopropyl-3-phenyl-5,6,7,8-tetrahydroimidazo[1,5-a]pyrazine-1-carboxamide] | + | 
23 | CNC(=O)[C@@H](NC(=O)c1nc(-c2ccc(C(F)(F)F)cc2)n2c1CN(C)CCC2)C(C)(C)C [Compound 330, (S)-N-(3,3-dimethyl-1-(methylamino)-1-oxobutan-2-yl)-8-methyl-3-(4-(trifluoromethyl)phenyl)-6,7,8,9-tetrahydro-5H-imidazo[1,5-a][1,4]diazepine-1-carboxamide] | + | 
